The results in this text go back to paper PMC9911399, “Two distinct binding modes provide the RNA-binding protein RbFox with extraordinary sequence specificity”.

The labels stand for the following.
B1: GGCAGCU (DNA:RNA)
RNA: GGGAGACCGGAAUUCAGAUUGUCCGGCAGCUUUAAAUCCCGUCGUAGCCACCA
DNA 1: CAATCTGAATTCCGGTCTCCC
DNA 2: TGGTGGCTACGACGGGATT
B2: AAUGCGG (DNA:RNA)
RNA: GGGAGACCGGAAUUCAGAUUGUCCAAUGCGGUUAAAUCCCGUCGUAGCCACCA
DNA 1: CAATCTGAATTCCGGTCTCCC
DNA 2: TGGTGGCTACGACGGGATT
B3: UUAAUGU (DNA:RNA)
RNA: B1 RNA with G25U, G26U, C27A, G29U, C30G
DNA 1: CAATCTGAATTCCGGTCTCCC
DNA 2: TGGTGGCTACGACGGGATT
B4: CAUUAAC (DNA:RNA)
RNA: B2 RNA with A25C, G28U, C29A, G30A, G31C
DNA 1: CAATCTGAATTCCGGTCTCCC
DNA 2: TGGTGGCTACGACGGGATT
B5: UUCGUUC (DNA:RNA)
RNA: B2 RNA with A25U, A26U, U27C, C29U, G30U, G31C
DNA 1: CAATCTGAATTCCGGTCTCCC
DNA 2: TGGTGGCTACGACGGGATT
B6: UCCGGCG (DNA:RNA)
RNA: B1 RNA with G25U, G26C, A28G, U31G
DNA 1: CAATCTGAATTCCGGTCTCCC
DNA 2: TGGTGGCTACGACGGGATT
B7: UGUGCAC (DNA:RNA)
RNA: B2 RNA with A25U, A26G, G30A, G31C
DNA 1: CAATCTGAATTCCGGTCTCCC
DNA 2: TGGTGGCTACGACGGGATT
B8: GCUUGGG (DNA:RNA)
RNA: B2 RNA with A25G, A26C, G28U, C29G
DNA 1: CAATCTGAATTCCGGTCTCCC
DNA 2: TGGTGGCTACGACGGGATT
B9: AAUUAUU (DNA:RNA)
RNA: B2 RNA with G28U, C29A, G30U, G31U
DNA 1: CAATCTGAATTCCGGTCTCCC
DNA 2: TGGTGGCTACGACGGGATT
B10: GGUCACG (DNA:RNA)
RNA: B1 RNA with C27U, A28C, G29A, U31G
DNA 1: CAATCTGAATTCCGGTCTCCC
DNA 2: TGGTGGCTACGACGGGATT
B11: AUAUUGG (DNA:RNA)
RNA: B2 RNA with A26U, U27A, G28U, C29U
DNA 1: CAATCTGAATTCCGGTCTCCC
DNA 2: TGGTGGCTACGACGGGATT
B12: GCAAUAG (DNA:RNA)
RNA: B1 RNA with G26C, C27A, G29U, C30A, U31G
DNA 1: CAATCTGAATTCCGGTCTCCC
DNA 2: TGGTGGCTACGACGGGATT
B13: UCUGUGG (DNA:RNA)
RNA: B2 RNA with A25U, A26C, C29U
DNA 1: CAATCTGAATTCCGGTCTCCC
DNA 2: TGGTGGCTACGACGGGATT
B14: UUUAUCA (DNA:RNA)
RNA: B1 RNA with G25U, G26U, C27U, G29U, U31A
DNA 1: CAATCTGAATTCCGGTCTCCC
DNA 2: TGGTGGCTACGACGGGATT
B15: CACCAAA (DNA:RNA)
RNA: B2 RNA with A25C, U27C, G28C, C29A, G30A, G31A
DNA 1: CAATCTGAATTCCGGTCTCCC
DNA 2: TGGTGGCTACGACGGGATT
B16: UAAAGCC (DNA:RNA)
RNA: B1 RNA with G25U, G26A, C27A, U31C
DNA 1: CAATCTGAATTCCGGTCTCCC
DNA 2: TGGTGGCTACGACGGGATT
B17: CACAUAG (DNA:RNA)
RNA: B2 RNA with A25C, U27C, G28A, C29U, G30A
DNA 1: CAATCTGAATTCCGGTCTCCC
DNA 2: TGGTGGCTACGACGGGATT
B18: UUCUCAU (DNA:RNA)
RNA: B1 RNA with G25U, G26U, A28U, G29C, C30A
DNA 1: CAATCTGAATTCCGGTCTCCC
DNA 2: TGGTGGCTACGACGGGATT
B19: GGAUGGC (DNA:RNA)
RNA: B1 RNA with C27A, A28U, C30G, U31C
DNA 1: CAATCTGAATTCCGGTCTCCC
DNA 2: TGGTGGCTACGACGGGATT
B20: UUAUGAC (DNA:RNA)
RNA: B1 RNA with G25U, G26U, C27A, A28U, C30A, U31C
DNA 1: CAATCTGAATTCCGGTCTCCC
DNA 2: TGGTGGCTACGACGGGATT
B21: GAGUUAG (DNA:RNA)
RNA: B2 RNA with A25G, U27G, G28U, C29U, G30A
DNA 1: CAATCTGAATTCCGGTCTCCC
DNA 2: TGGTGGCTACGACGGGATT
B22: CCAGGUU (DNA:RNA)
RNA: B1 RNA with G25C, G26C, C27A, A28G, C30U
DNA 1: CAATCTGAATTCCGGTCTCCC
DNA 2: TGGTGGCTACGACGGGATT
B23: CGCAGGA (DNA:RNA)
RNA: B1 RNA with G25C, C30G, U31A
DNA 1: CAATCTGAATTCCGGTCTCCC
DNA 2: TGGTGGCTACGACGGGATT
B24: UCCACUC (DNA:RNA)
RNA: B1 RNA with G25U, G26C, G29C, C30U, U31C
DNA 1: CAATCTGAATTCCGGTCTCCC
DNA 2: TGGTGGCTACGACGGGATT
B25: UGCACUU (DNA:RNA)
RNA: B1 RNA with G25U, G29C, C30U
DNA 1: CAATCTGAATTCCGGTCTCCC
DNA 2: TGGTGGCTACGACGGGATT
B26: UAAUCAG (DNA:RNA)
RNA: B2 RNA with A25U, U27A, G28U, G30A
DNA 1: CAATCTGAATTCCGGTCTCCC
DNA 2: TGGTGGCTACGACGGGATT
B27: AUGCUCG (DNA:RNA)
RNA: B2 RNA with A26U, U27G, G28C, C29U, G30C
DNA 1: CAATCTGAATTCCGGTCTCCC
DNA 2: TGGTGGCTACGACGGGATT
B28: UCGUGGC (DNA:RNA)
RNA: B2 RNA with A25U, A26C, U27G, G28U, C29G, G31C
DNA 1: CAATCTGAATTCCGGTCTCCC
DNA 2: TGGTGGCTACGACGGGATT
B29: CAGACUA (DNA:RNA)
RNA: B2 RNA with A25C, U27G, G28A, G30U, G31A
DNA 1: CAATCTGAATTCCGGTCTCCC
DNA 2: TGGTGGCTACGACGGGATT
B30: UGCUGAA (DNA:RNA)
RNA: B1 RNA with G25U, A28U, C30A, U31A
DNA 1: CAATCTGAATTCCGGTCTCCC
DNA 2: TGGTGGCTACGACGGGATT
B31: CGAUAUU (DNA:RNA)
RNA: B1 RNA with G25C, C27A, A28U, G29A, C30U
DNA 1: CAATCTGAATTCCGGTCTCCC
DNA 2: TGGTGGCTACGACGGGATT

Residue numbers refer to the chain shown, from its start. Some of the results follow.

The target of the test is T1, RBFOX1 RRM (Homo sapiens, UniProt Q9NWB1 109-208).
T1 sequence: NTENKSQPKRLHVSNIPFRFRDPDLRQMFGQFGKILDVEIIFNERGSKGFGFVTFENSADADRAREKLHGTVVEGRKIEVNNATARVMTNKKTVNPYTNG
Description: EMSA; HiTS-Eq, 1 nM pool, 10 min; buffer printed only for the single-RNA assays: 10 mM Tris pH 7.5, 150 mM NaCl, 3.4 mM EDTA, 0.001% NP-40, 30 C. The following applies: tags: His6 N-terminal (pET28a); label: 5' 32P. The essentials: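 Purified wild-type or mutant RbFox RRM at increasing concentrations was equilibrated with 1 nM of 5′-radiolabelled RNA carrying 7 randomized nucleotides for 10 min in 50 µL. Unbound RNA was separated by 8% native PAGE and sequenced. Relative association constants came from read-count changes of each RNA species compared with the control reaction, normalised to the cognate motif.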
In general terms: Mobility shift assays separate free from complexed probe on a gel.
With B1, the binding signal was 0.0114 KA relative to UGCAUGU.

With B2, the binding signal was 0.0113 KA relative to UGCAUGU. Regarding B3, the binding signal is 0.0122 KA relative to UGCAUGU. For B4, the binding signal was 0.000395 KA relative to UGCAUGU. Regarding B5, the binding signal was 0.0129 KA relative to UGCAUGU. Under B6 stands 0.00745 KA relative to UGCAUGU; under B7, 0.0241 KA relative to UGCAUGU; under B8, 0.0124 KA relative to UGCAUGU. As to B9, the binding signal is 0.00113 KA relative to UGCAUGU. For the molecule B10, the binding signal was 0.00945 KA relative to UGCAUGU. To B11 belongs 0.00681 KA relative to UGCAUGU. As for B12, the binding signal was 0.00829 KA relative to UGCAUGU.

B13: the binding signal was 0.0135 KA relative to UGCAUGU. For B14, the binding signal was 0.00356 KA relative to UGCAUGU.

With B15, the binding signal was 0.00153 KA relative to UGCAUGU. Under B16 stands 0.00626 KA relative to UGCAUGU; under B17, 0.00225 KA relative to UGCAUGU; under B18, 0.00986 KA relative to UGCAUGU.

Regarding B19, the binding signal is 0.0116 KA relative to UGCAUGU. For B20, the binding signal is 0.0121 KA relative to UGCAUGU. With B21, the binding signal is 0.0108 KA relative to UGCAUGU.

In the case of B22, the binding signal is 0.00894 KA relative to UGCAUGU. Turning to B23, the binding signal was 0.00896 KA relative to UGCAUGU. Turning to B24, the binding signal was 0.00454 KA relative to UGCAUGU. Consider B25, for which the binding signal is 0.0136 KA relative to UGCAUGU.

B26: the binding signal was 0.0157 KA relative to UGCAUGU.

Consider B27, for which the binding signal is 0.0294 KA relative to UGCAUGU. As to B28, the binding signal was 0.0109 KA relative to UGCAUGU. For the molecule B29, the binding signal is 0.000273 KA relative to UGCAUGU. As to B30, the binding signal was 0.0262 KA relative to UGCAUGU.

As to B31, the binding signal is 0.00438 KA relative to UGCAUGU.
